# In PubChem BioAssay AID463173 (ICCB-Longwood Screening Facility, Harvard Medical School, 2010):
# Hit rate of the full screen: of about 52,000 compounds, about 1,700 (3.3%) were called active. Rule as the data show it: active = survival mostly below about 52% (no sharp cut-off); inactive = mostly above about 56%. This is one part of the list.
# Tested on: Wild type
# Assay: S. aureus survival, RN4220 and DeltatarO strains – OD600, teichoic acid synthesis inhibitors, primary screen (AID 463173)
# Details: S. aureus RN4220 wild type/DeltatarO growth, OD600, 18 h, stronger effect = lower value, screened at 18.75 µg/mL (by protocol)
row,SMILES,survival
1,Cc1ccc(NC(=O)CN2C(=O)CCc3cc(S(=O)(=O)N4CCOCC4)ccc32)cc1N(C)C,inactive: 66%
2,O=C(CCc1nc2cccnc2n1Cc1cccs1)Nc1cccc(C(F)(F)F)c1,inactive: 79%
3,O=C(c1ccc(C(F)(F)F)cc1)N1CCC(c2noc(-c3ccc(S(=O)(=O)N4CCCC4)cc3)n2)CC1,inactive: 92%
4,O=C1NC(=O)C(=Cc2ccc(N3CCCC3)o2)C(=O)N1,inactive: 102%
5,NC(=O)c1ccccc1NC(=O)C1CCCN(c2ncnc3onc(-c4ccc(F)cc4)c23)C1 (stereo not given),inactive: 68%
6,O=C(c1cccs1)N(Cc1cccnc1)c1nc2c(Cl)cccc2s1,inactive: 99%
7,Cc1ccccc1Cn1c(=O)n(Cc2ccc3c(c2)OCO3)c(=O)c2oc3ccccc3c21,inactive: 117%
8,O=C(NC1CCCC1)c1ccc2c(c1)N(Cc1ccc(C(F)(F)F)cc1)C(=O)c1ccccc1S2,inactive: 93%
9,CN(C)C(=O)c1ccc(NC(=O)Cn2nnnc2-c2ccccc2F)cc1,inactive: 113%
10,COc1ccc(CNCCNC(=O)c2ccncc2)c(OC)c1OC,inactive: 90%
11,COCCCNS(=O)(=O)c1cc(-c2onc(C)c2C)ccc1OC,inactive: 111%
12,COc1ccc(N2CCN(C(=O)CSc3n[nH]c(-c4ccccc4)n3)CC2)cc1,inactive: 72%
13,COc1ccc(-c2noc(CCC(=O)N(C)c3ccccc3C)n2)cc1,inactive: 71%
14,O=C(Nc1ccc(-c2nc3cc(NC(=O)c4ccccc4Cl)ccc3o2)cc1)c1ccccc1Cl,inactive: 68%
15,COc1ccc(Nc2c3c(nc4ccc(NC(=O)/C=C/c5cc(OC)c(OC)c(OC)c5)cc24)CCCC3)cc1OC,inactive: 98%
16,COc1cccc(C2(O)CCN(C(=O)c3cccs3)CC2)c1,inactive: 111%
17,CCN(CC)C(=O)C1C(=O)N(C)C2(C)CC1c1ccccc1O2 (stereo not given),inactive: 108%
18,N#Cc1ccc(-c2cccs2)nc1SCc1c(F)cccc1Cl,inactive: 50%
19,COc1ccc(N(CC(=O)NCc2ccc(F)cc2)S(=O)(=O)c2c(C)noc2C)cc1,inactive: 85%
20,CN(C)c1ccc(CN(CC2CCCO2)C(=O)COc2ccccc2Cl)cc1 (stereo not given),inactive: 80%
21,COc1ccccc1CNC(=O)Cc1c(C)c2c(cc(C)c3c(C)coc32)oc1=O,inactive: 84%
22,Cc1ccccc1C(=O)N(Cc1ccc(N(C)C)cc1)Cc1ccco1,inactive: 87%
23,Nn1c(Nc2ccccc2)nc2sc3c(c2c1=O)CCCC3,inactive: 104%
24,COc1ccc(OC)c(-c2nc3c(C#N)c[nH]n3c2NC2CCCCC2)c1,inactive: 102%
25,Cc1cccc(NC(=O)NC2CC3CCCC(C2)N3CC(C)C)c1 (stereo not given),inactive: 102%
